# Whole data set: some 110,000 compounds, median “z-score” near -0.1, cut for the highest 2% near 2. The list shows a part of the results.
# Molecular target: Metabotropic glutamate receptor 8 (Rattus norvegicus) (UniProt P70579)
# Experiment: rat mGluR8 modulators via GIRK flux, primary screen, cell-based, thallium flux, HTS (AID 488969)
# Settings: HEK293 rat mGluR8, GIRK (G protein-gated inwardly rectifying potassium channel) thallium flux, FluoZin2; at 10 µM; stronger effect = higher value; submaximal glutamate (EC20) added with thallium
# UniProt P70579, sequence (P70579 whole entry, looked up): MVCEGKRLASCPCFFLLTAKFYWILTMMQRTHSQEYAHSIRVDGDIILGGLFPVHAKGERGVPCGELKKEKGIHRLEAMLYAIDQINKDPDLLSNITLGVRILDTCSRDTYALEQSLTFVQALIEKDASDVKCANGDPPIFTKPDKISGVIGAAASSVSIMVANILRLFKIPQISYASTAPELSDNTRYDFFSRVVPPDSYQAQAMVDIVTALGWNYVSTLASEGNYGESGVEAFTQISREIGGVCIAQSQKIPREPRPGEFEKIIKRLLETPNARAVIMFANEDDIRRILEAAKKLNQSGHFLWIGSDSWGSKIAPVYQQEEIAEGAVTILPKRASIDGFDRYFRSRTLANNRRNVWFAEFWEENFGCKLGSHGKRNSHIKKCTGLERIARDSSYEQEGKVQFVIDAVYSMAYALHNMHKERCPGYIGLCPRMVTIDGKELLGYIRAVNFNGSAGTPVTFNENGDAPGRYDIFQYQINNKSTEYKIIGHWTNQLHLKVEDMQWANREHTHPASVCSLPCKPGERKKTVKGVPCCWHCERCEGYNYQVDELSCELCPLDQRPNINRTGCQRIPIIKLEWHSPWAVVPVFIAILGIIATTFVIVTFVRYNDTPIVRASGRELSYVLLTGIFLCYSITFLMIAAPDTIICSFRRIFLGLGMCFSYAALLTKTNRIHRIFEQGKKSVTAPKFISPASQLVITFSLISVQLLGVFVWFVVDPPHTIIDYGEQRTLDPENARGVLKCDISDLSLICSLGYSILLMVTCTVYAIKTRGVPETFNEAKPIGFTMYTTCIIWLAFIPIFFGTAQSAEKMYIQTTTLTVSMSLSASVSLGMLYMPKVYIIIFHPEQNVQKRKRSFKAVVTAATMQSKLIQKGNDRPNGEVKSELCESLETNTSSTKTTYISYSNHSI
row,SMILES,z-score
1,COc1ccc(CNC(C)(C)C)cc1Cl,-0.08
2,COc1ccc(CCNC(=O)c2ccc(CN3CCOCC3)cc2)cc1,-0.861
3,O=C(CCN1CCC(c2ccccc2)C1)c1ccccc1 (configuration not stated),-0.0799
4,COc1ccccc1C(CCNS(=O)(=O)c1ccc(C)cc1)c1ccco1 (configuration not stated),-0.194
5,CC(C)(C)c1cc(S(=O)(=O)CCc2ccccn2)cc(C(C)(C)C)c1F,-0.107
6,On1onc2c3cc(-c4ccccc4)nc3ccc21,-0.0816
7,CC1=C(C(=O)NCc2ccccc2)C(c2cccnc2)n2ncnc2N1 (configuration not stated),0.172
8,Cc1cc(C(=O)NCc2ccc3c(c2)OCO3)n(-c2ccccc2)n1,-1.31
9,Cc1ccc(C(=O)NC(=S)Nc2ccc(Oc3ccc(Cl)cc3)cc2)cc1,0.157
10,COc1ccccc1N1C(=O)CCC1(C#N)c1ccccc1 (configuration not stated),-0.89
11,N#Cc1cc([N+](=O)[O-])cnc1Nc1ccccc1,-0.521
12,Cc1cnc(C(=O)Nc2cccc(S(=O)(=O)N(C)C)c2)cn1,-0.268
13,Cc1cc(C=O)c(C)n1-c1cc(C(F)(F)F)ccc1N1CCOCC1,0.457
14,O=C(Cn1nc(C(F)(F)F)c2c1CCCC2)NCc1ccco1,0.308
15,Cc1ccc(-c2nc3ncccn3c2Nc2ccc3c(c2)OCO3)o1,-0.257
16,O=C(O)c1c2c(nc3ccc(S(=O)(=O)N4CCC(C(=O)N5CCCCC5)CC4)cc13)CCCC2,0.292
17,CCOC(=O)Cn1c(CN2CCOCC2)nc2c1c(=O)[nH]c(=O)n2C,0.345
18,CN(C)c1c([N+](=O)[O-])cc2[nH]c(=O)[nH]c2c1[N+](=O)[O-],-1.08
19,O=C(OCn1ncc(Cl)c(Cl)c1=O)c1cccc(C(F)(F)F)c1,-1

row,SMILES,z-score
1,OC(COCc1ccccc1)Cn1cnc2ccccc21 (configuration not stated),-0.369
2,Cc1ccc(C(=O)c2ccccc2C(=O)OCC(=O)NCCc2ccccc2)cc1,-0.0141
3,Cc1cc(C(=O)NCC(c2ccco2)N(C)C)no1 (configuration not stated),-0.388
4,O=C(c1ccc(COc2ccc(F)cc2)o1)n1cc(Br)cn1,-1.23
5,COc1ccc(/C=N/NC(=O)CCCOc2ccc(Cl)cc2Cl)cc1[N+](=O)[O-],0.39
6,COc1ccc(CCn2c(N)c(C(=O)NCc3ccco3)c3nc4ccccc4nc32)cc1OC,0.167
7,Cc1ccc(C)c(NS(=O)(=O)c2ccc(NC(=O)CSc3ccc(Cl)cc3)cc2)c1,-1.42
8,O=C1c2ccccc2C(=O)N1CNc1ccccc1,0.141
9,CC1(C)C2(C#N)C(N)=NC3(OCCO3)C12C#N (configuration not stated),-0.373
10,CCN1CCN(CCC(=O)Nc2ccc3c(c2)OCO3)CC1,0.949
11,CCCCOc1ccc(C2CC(=O)N(C)C2=O)cc1 (configuration not stated),-0.376
12,CCOC(=O)c1c(C)[nH]c(C(=O)N/N=C\c2ccccc2O)c1C,0.156
13,O=C1CC(N2CCCN(C3CC(=O)N(c4ccc(F)cc4)C3=O)CC2)C(=O)N1c1ccc(F)cc1 (configuration not stated),-0.249
14,O=S1(=O)C=CC(Nc2ccccc2)C1 (configuration not stated),0.992
15,COc1cc(C)ccc1OCCOc1c(C)cc(Cl)cc1Cl,-0.134
16,Nc1c(S(=O)(=O)c2cccs2)c2nc3ccccc3nc2n1Cc1ccc2c(c1)OCO2,-0.174
17,CCOc1nc(Nc2ccc(OC)c(Cl)c2)nc(N2CCN(c3ccc(OC)cc3)CC2)n1,-0.0456
18,COC(=O)c1ccc(COC(=O)c2ccccc2OC)cc1,-0.184
19,Cc1cc(=O)[nH]c(-n2[nH]c(C)cc2=O)n1,0.322

row,SMILES,z-score
1,Cc1ccc(NC(=O)CCn2c(=O)oc3ccccc32)c(C)c1,0.00309
2,Cc1ccnc(SCC(=O)c2ccc([N+](=O)[O-])cc2)n1,-0.0334
3,C/C(=N\OCC(=O)N/N=C/c1ccc(C)cc1O)c1cccs1,0.606
4,O=C(CSc1nccn1Cc1ccccc1)NCc1ccccc1,-0.325
5,CC(=O)c1ccc(NS(=O)(=O)c2ccccc2)cc1,-0.174
6,CN1C(=O)c2ccc(NC(=O)C3CCCCC3)cc2C1=O,-0.446
7,O=C1C2CCCN2C(c2ccc(Br)cc2)N1c1ccc(F)cc1 (configuration not stated),-0.348
8,N#Cc1ccc(N2Cc3ccccc3/C2=N/C(=O)Nc2ccc(Cl)cc2)cc1,-0.0564
9,O=C1Cc2ccccc2C(c2ccc(Br)cc2)N1 (configuration not stated),-0.142
10,COc1ccc(-n2nnnc2SCc2nc(N)nc(N3CCOCC3)n2)cc1,-0.0167
11,S=c1[nH]nc(-c2ccc3ccccc3n2)n1-c1ccc2ncccc2c1,-0.148
12,COC(=O)Nc1sc(C)nc1-c1ccccc1,0.156
13,CC(=O)N1CCc2cc(S(=O)(=O)N3CCc4ccccc4C3)ccc21,-0.722
14,Cc1cccc(-n2cc[nH]c2=S)c1C,0.000959
15,CCOC(=O)c1cccc(NC(=O)CCn2cccc2)c1,-0.42
16,COc1cccc(N2CCN(C3CC(=O)N(c4ccc(Cl)c(Cl)c4)C3=O)CC2)c1 (configuration not stated),-0.256
17,Cc1ccc(NC2CC(=O)N(c3ccc(C)cc3)C2=O)cc1 (configuration not stated),-0.219
18,COCCNC(=O)C1(C)Oc2ccccc2NC1=O (configuration not stated),-0.0416
19,Cc1ccc(C(=O)C2=C(O)C(=O)N(c3ncccn3)C2c2ccc(Cl)cc2)o1 (configuration not stated),-2.11

# Reference: PubChem BioAssay AID488969 (Vanderbilt High Throughput Screening Facility, 2010)
